Consider 87 sequences from paper PMC5515408.

The other results are listed elsewhere or left out. At the low end of the ranking the order means little.

The target of the assay is MAX:MAX (p21) (UniProt P61244-2). The assay can be described thus: protein-binding microarray (anti-MAX antibody). As to conditions: PBM: 15 mM Tris-HCl pH 7.5, 100 mM KCl, 0.075% NP40, 7.5 mM beta-mercaptoethanol, 375 ng/ul BSA, 8 ng/ul poly(dA-dT):(dA-dT), 550 ng complex, 60 min, room …; high values mean tight binding; double strand, one strand shown; sequences stand for … in CCGGC…TTAATAGCTAAGATTACTATATCGACG
Consider TGAGCCGATGTA, for which the binding signal (log2 normalized fluorescence) was -0.683.

TGAAAACTCGTA gave a binding signal (log2 normalized fluorescence) of -0.502.

TGACCTGGGGTA: the binding signal (log2 normalized fluorescence) stood at 0.0286.

Take TGAGGCACGGTA: the binding signal (log2 normalized fluorescence) turned out to be 0.498.

As for TGATCTTCCGTA, the binding signal (log2 normalized fluorescence) is -1.11.

In turn, TGAGGTCAAGTA returned a binding signal (log2 normalized fluorescence) of -0.669.

With TGACCAACTGTA, the binding signal (log2 normalized fluorescence) is -0.224.

Take TGAAGCACTGTA: the binding signal (log2 normalized fluorescence) turned out to be 0.287.

Sequence TGACTTTGTGTA displayed a binding signal (log2 normalized fluorescence) of -0.492.

TGAGTGGATGTA gave a binding signal (log2 normalized fluorescence) of 0.0423.

Turning to TGAGTACTCGTA, the binding signal (log2 normalized fluorescence) was -0.771.

In the case of TGACGCGTGGCA, the binding signal (log2 normalized fluorescence) is 3.12.

Take TGAGTGAGGGTA: the binding signal (log2 normalized fluorescence) is -0.0605.

The sequence TGACTTTCTGTA had a binding signal (log2 normalized fluorescence) of -0.943.

TGATGGCAAGTA displayed a binding signal (log2 normalized fluorescence) of 0.257.

On to TGACACTTGGCA, for which the binding signal (log2 normalized fluorescence) was found to be 0.568.

The sequence TGACGTCCTGTA gave a binding signal (log2 normalized fluorescence) of -0.423.

Sequence TTACACGTTGTC registered a binding signal (log2 normalized fluorescence) of 3.27.

The sequence TGATCGTCAGTA came in with a binding signal (log2 normalized fluorescence) of -0.695.

Consider TGACCAGAGGTA, for which the binding signal (log2 normalized fluorescence) is -0.618.

The sequence TGATCGATCGTA gave a binding signal (log2 normalized fluorescence) of -0.949.

For TGAAATTACGTA, the binding signal (log2 normalized fluorescence) was -0.721.

For the sequence TGACTGGGGGTA, the binding signal (log2 normalized fluorescence) turned out to be 1.41.

Sequence TGAAGCATTGTA came in with a binding signal (log2 normalized fluorescence) of 1.13.

TGGTACGTGGTA gave a binding signal (log2 normalized fluorescence) of 1.19.

TGATAATGCGTA gave a binding signal (log2 normalized fluorescence) of -0.015.

Take TGAGGTCCCGTA: the binding signal (log2 normalized fluorescence) was -0.331.

In the case of TGACGGTGTGTA, the binding signal (log2 normalized fluorescence) is 0.665.

For TGAACATCGGTA, the binding signal (log2 normalized fluorescence) is -0.121.

TGACTTAACGTA displayed a binding signal (log2 normalized fluorescence) of -0.215.

The sequence TGACAGATGGTA showed a binding signal (log2 normalized fluorescence) of 1.4.

The sequence TGAGATCGTGTA gave a binding signal (log2 normalized fluorescence) of 0.277.

On to TGATACGAAGTA, for which the binding signal (log2 normalized fluorescence) was -0.744.

Sequence TGATCATGTGTA returned a binding signal (log2 normalized fluorescence) of 2.73.

Take TGATCAGGAGTA: the binding signal (log2 normalized fluorescence) was found to be 0.593.

TGATCCTGGGTA had a binding signal (log2 normalized fluorescence) of -0.943.

TGACAGCCTGTA displayed a binding signal (log2 normalized fluorescence) of 0.72.

Turning to TGAACTCCGGTA, the binding signal (log2 normalized fluorescence) is -0.81.

As for TGACAGGTTGTA, the binding signal (log2 normalized fluorescence) was 0.711.

The sequence TGATCACTCGTA showed a binding signal (log2 normalized fluorescence) of -0.292.

With CTACACGTGGTA, the binding signal (log2 normalized fluorescence) was found to be 3.31.

Sequence TGATTCTTTGTA displayed a binding signal (log2 normalized fluorescence) of -1.29.

On to TAACACAAGGTA, for which the binding signal (log2 normalized fluorescence) worked out at 2.35.

TGATACATTGTA showed a binding signal (log2 normalized fluorescence) of -0.543.

With TGATCATACGTA, the binding signal (log2 normalized fluorescence) was determined as 0.302.

In turn, TGACGTTTAGTA yielded a binding signal (log2 normalized fluorescence) of -0.408.

Turning to TGAGACAGCGTA, the binding signal (log2 normalized fluorescence) was -0.544.

TGACGCTGGGTA showed a binding signal (log2 normalized fluorescence) of -0.533.

Turning to TGAGACCGAGTA, the binding signal (log2 normalized fluorescence) was -1.05.

With TGATAATCGGTA, the binding signal (log2 normalized fluorescence) was -1.07.

Turning to TGAAGAGATGTA, the binding signal (log2 normalized fluorescence) is -0.412.

For the sequence TGAAAGGAAGTA, the binding signal (log2 normalized fluorescence) was -0.663.

Turning to TGATAATGGGTA, the binding signal (log2 normalized fluorescence) was -0.612.

Regarding AGGCACGTGGTA, the binding signal (log2 normalized fluorescence) stood at 3.21.

Sequence TGAATCAACGTA registered a binding signal (log2 normalized fluorescence) of -0.41.

The sequence TGATGCTCGGTA returned a binding signal (log2 normalized fluorescence) of 0.119.

Take TGAGCAGATGTA: the binding signal (log2 normalized fluorescence) was found to be 0.957.

Consider TGAAGTGACGTA, for which the binding signal (log2 normalized fluorescence) is -0.131.

As to TGAGTGTTTGTA, the binding signal (log2 normalized fluorescence) is -0.151.

The sequence TGAGGATGTGTA gave a binding signal (log2 normalized fluorescence) of -0.391.

Turning to TGAATTCTCGTA, the binding signal (log2 normalized fluorescence) is -0.722.

Sequence TGAATAGCTGTA came in with a binding signal (log2 normalized fluorescence) of -0.726.

TGAGACAGGGTA: the binding signal (log2 normalized fluorescence) was -0.698.

TGAGCCATCGTA registered a binding signal (log2 normalized fluorescence) of -0.647.

On to TGATAGGGAGTA, for which the binding signal (log2 normalized fluorescence) is -0.901.

In the case of TGATGGATAGTA, the binding signal (log2 normalized fluorescence) was -0.261.

Turning to TGGCACAAGGTA, the binding signal (log2 normalized fluorescence) came out at 2.04.

TGAGTACAAGTA returned a binding signal (log2 normalized fluorescence) of -0.809.

On to TGACCCTAAGTA, for which the binding signal (log2 normalized fluorescence) was -0.499.

For TGAGCAGGTGTA, the binding signal (log2 normalized fluorescence) is 1.83.

The sequence TGAGTCCACGTA displayed a binding signal (log2 normalized fluorescence) of 0.193.

For the sequence TGATCCCGGGTA, the binding signal (log2 normalized fluorescence) is -0.935.

Sequence TGAGAACGCGTA had a binding signal (log2 normalized fluorescence) of 0.0351.

For the sequence TGACTCCGCGTA, the binding signal (log2 normalized fluorescence) is -0.516.

Sequence TGATGGCGGGTA yielded a binding signal (log2 normalized fluorescence) of 0.267.

For TGACCTTGCGTA, the binding signal (log2 normalized fluorescence) amounted to 0.58.

In turn, TGACAAGGAGTA showed a binding signal (log2 normalized fluorescence) of -0.357.

As for TGAGTGCGTGTA, the binding signal (log2 normalized fluorescence) came to 1.52.

Regarding TGAGGCGATGTA, the binding signal (log2 normalized fluorescence) is -0.618.

TGACTAGCTGTA gave a binding signal (log2 normalized fluorescence) of -1.13.

Sequence TGAGTTAGAGTA registered a binding signal (log2 normalized fluorescence) of -0.886.

As to TGAGACGCGGTA, the binding signal (log2 normalized fluorescence) is -0.302.

Sequence TGAATATCTGTA gave a binding signal (log2 normalized fluorescence) of -1.31.

In turn, TGAGGGCTCGTA registered a binding signal (log2 normalized fluorescence) of -0.526.

In turn, TGACGGCTCGTA gave a binding signal (log2 normalized fluorescence) of -0.779.

For TGACAGCATGTA, the binding signal (log2 normalized fluorescence) amounted to 2.89.

As for TGAACCGCTGTA, the binding signal (log2 normalized fluorescence) was -0.243.
